Measurements taken from the supplement of paper PMC10126150.
Values marked as one replicate rest on one cluster of the flow cell; about a third of the high ones do not repeat.

Test system: ATP
Assay: switch fluorescence ratio, 500 uM ATP over buffer (Cy3 cluster intensity, sum of 5 cycles each) (fold (ratio)); higher = stronger signal-on switching upon ATP binding; sequences stand for … in TCGTCGGCAGCGTCAGATGTGTATAAGAGACAGTTTTTTTTTTTTTTTTTTTTTTTTT…TC
Conditions: aptamer strand: ATP DNA aptamer (quencher-CACCTGGGGGAGTATTGCGGAGGAAGG + anchor), 100 nM annealed; ATP concentration: 500 uM; one replicate
Procedure, shortened: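 Clusters carrying Cy3-labelled switching strands on a modified Illumina MiSeq flow-cell were annealed to 100 nM quencher-labelled ATP aptamer and imaged in selection buffer. They were imaged again after 15 min with 500 uM ATP at 22 °C, over five buffer/ATP cycles with NaOH stripping and re-annealing in between. For each cluster, the fluorescence ratio is the summed Cy3 intensity of the target cycles divided by that of the buffer cycles, averaged per switch-domain sequence. Clusters outside 100-1000 RFU were left out.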
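Also: ATP exposure 15 min at 22 °C before imaging.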

Sequence	switch fluorescence ratio
ACACTAGGCA	1.07
GAGTCCGTTA	1.21
TATCAGTATG	0.993
CCGCGGAGAA	1
TGGTTAAACC	0.984
TCCTATCTAA	1.04
TGTCAGAGCA	0.961
TTGGTAGAGA	1
TTTGTCGTTC	0.974
AGATAACCC	1.04
ATTTTAGGCT	1.02
ATAATCATA	1.02
ATCCCTATTT	1.02
TGAATCCGTG	0.951
TCGTGCCTAT	1.04
TCTGCGGTA	1.03
GCTGGCTCTG	0.981
AGGCCCGCTG	1.02
TATCGCGTAG	0.975
ATGTCGCCTG	1.01
TGCCTATTAT	0.976
ATGGTTATTG	0.982
TATTTGGGG	0.991
TAATCTCGGC	0.933
GGATCTGGAG	1.06
CCCGTGCGTT	1.01

Sequence	switch fluorescence ratio
GTGCGGATAT	0.99
CCTAAGAATT	1.03
GGAAGGCAAA	0.97
CGTAAACTGT	0.977
ATTAATACT	1.03
TGCCCAGAAG	1.06
TTCATCCTTC	1.1
CATACAAAAA	1.09
GCGATACACG	1.19
CGATGCTTA	1.14
CCACCCAGGA	1.88
AAGCTGGGCT	1.03
ACTTCAAACT	1.1
CACACCGGCG	1.03
CGACTGGGGT	1.06
TCACCCGCCG	1.03
TCTCTAAGT	1.04
TATGGGTTG	0.958
CGTGTATAGA	1.03
ATGGTCTACG	1.02
CAAGGGAGCG	0.969
TATACAGCAG	1
TGGCGGCTTA	0.987
ATGTTGACGT	1.06
CGTCCTTT	0.958
ACGTCATCTG	1.04

Sequence	switch fluorescence ratio
AAAAGTGTG	0.993
GGCAGATCAA	0.998
GTCCCTCTAG	1.06
TCTGCCACTT	0.986
CGTGATTATC	1.06
CTTTTTCCGT	1.12
CTTGTACGGG	1
AAAGTATGTT	0.999
AATCTGGTTT	1.01
TGATAAATCT	0.994
TTGTGAACAA	0.989
TTGGCTGGCC	0.993
GCCTACCGCT	1.42
ATACGATACT	1.39
GGAAATAAAG	0.986
GCTAGCGTGA	0.959
CAGTAGTTTA	1.01
TTTGCGCCCT	0.956
GGGTGACCCG	0.959
ATGCGGAGAC	1.05
TGACAGGTCA	1.01
GCGTTTAAAA	1.01
GCGCTGCGGT	1.02
CAGGCTGGTG	1.07
GGCCTGCTGA	1.09
GGAGCATGCG	1.1

Sequence	switch fluorescence ratio
AACGTAGAAC	1.05
CGCAGGCATT	1.17
ACGCGGTGTG	0.967
TTCAAAGTC	0.97
ATGCTGCATG	0.964
AACCTGAGAA	0.953
ACATGACGCG	0.953
TGCTCGTTTG	0.994
GAGCGGCTGT	1.04
GTTTTATA	1.02
CCTTAGTTTG	1.05
GAGCTTCGAC	1.14
GTTTCAGCAG	1.02
TCGAGTGCAT	1.06
TTAGGTTAGC	0.979
CCTAAACATG	0.989
TAGGATAGGC	0.985
CATACTGTTC	0.998
TGGTTATCGT	0.925
GCTCGCAAAT	1.25
GTAGATAACG	1.02
ACTGGTAATC	1.05
GGGGACAGG	1.04
CCGTGTTACC	1.82
CAGTCTAGAA	0.959
TAAGGTCCCG	1

Sequence	switch fluorescence ratio
GGGGTGCATT	1.01
GGAATGGGAT	0.982
ATGATGGGAA	0.974
GCTCTTCGCA	1.19
TATTTCTCTT	0.952
GAACTCACGG	1.35
GTAAGACGTC	0.995
TCGGTCATCA	1.01
ACCAATAACC	1.06
GGCTTGGCCT	0.989
CAGTCTCAGG	1.04
GACGAGTCGG	1
ACTAATACCG	1
GCAAAATGAC	1.01
CATCCTTAAC	1.28
ATCAGTCCTC	1.01
GAGGTGTGTC	0.955
TAATCTGTCC	1.73
GCGTGACGAG	1.04
ATGACATACA	1.21
GCGTCTGTG	0.988
GTAGGTACCG	0.982
CATGGGTACT	0.976
TGACTTGTTG	0.96
ATAGTGGCCT	1.02
CAGCCTCTGC	1.03

Sequence	switch fluorescence ratio
GGGGAATTC	1
TAGCCTTCGG	1.01
TCCTGGCTTG	0.994
AGGGAGTAGA	0.988
AGTAGGTTGG	1.01
TACCAGGGGC	1.81
ATCCAATGCG	0.976
CCTGTCCAAA	1.1
ACACTTGGGC	1.01
TCAACCATTA	1.02
TCAATGTCTA	1
ACTTAATCA	0.963
ATTCGCTGAT	1.08
AACATGTT	1.06
GATGGCGCTT	0.962
TGCGCTGATA	1.01
GATACATCTG	0.992
GACTACGACG	1.05
GAGAAGAGGT	0.979
CGGGCCGCCC	1.07
TCCGCAGTTT	3.29
AAGATCTAAC	0.976
ATTCCGGTAA	1.61
GTACAGGGGT	2.58
CAATCGGACG	1.05
CATTAGTTAA	1.01

Sequence	switch fluorescence ratio
TCGTCATATG	0.997
CTTATGGTTC	1.03
TCTGGAAGCG	0.995
ATCGTATCAT	1.01
ATAGGTCGG	1
GTTTCGGGCC	0.894
AGTATGTTAG	0.973
CACAAAGTTC	1.08
TGATATATCC	1
TCTTAACGAG	0.99
CGAGCCCGGG	1.71
AACTTAGAGG	1
TGGGCCATGG	0.942
TGAGGGGCAC	0.989
ATCTATATG	1
CTGATCCTAG	1.02
TGGCACCACT	1.03
CCACTAACCT	1.84
CACGCATCTT	0.99
CCCCGGGAGG	1.17
AATTACGTCG	1.01
GTATGGAACG	0.983
GCGCTTCTAG	0.985
CGTTCATCGG	0.972
GGATGAAAAA	0.987
GACAATGTAT	1.02

Sequence	switch fluorescence ratio
GATCCCGGTA	1.04
TTCGTCGGTG	0.984
AAAAAGCTCT	1.01
CCTAGGGC	0.968
CGCCCGGGGT	1.24
GGCTGTCTTC	1.01
AAACTCTAGG	0.99
ACATGTAGGC	1
AGGCTCACGT	1.03
TTTTACCGCT	1.05
GATTAAAGTG	0.976
CAACTTGACG	0.907
CGAGTTGAGT	1.01
AATAAGTTC	0.979
TTAATATTG	0.986
CAAGGACAT	1.02
ATAGGTGTGT	0.984
TGCTCGCGTA	1.02
ATATTTTGT	0.956
